{
  "source": "PubChem BioAssay AID686979",
  "about": "(National Center for Advancing Translational Sciences (NCATS), 2013)",
  "note": "“And” between values parts separate entries of the source, which are not always exact repeats. Identical values can stand only once. Among all 420,000 compounds or so, about 50,000 (12%) were called active. This list was built around the results that the source calls inconclusive (neither active nor inactive); the mix of calls is not that of the screen. Calls follow the shape of the dose curve; as a rule, active = well fitted inhibition curve with a large enough effect; inconclusive = small, poorly fitted or top-dose-only effect; inactive = flat fitted curve, though single readings scatter. Potencies of inconclusive entries are doubtful fits and often do not repeat. Potency is read from the fitted curve at half-maximal effect; tags tell the direction and shape of the fitted curve.",
  "data": [
    {"assay": "qHTS for Inhibitors of human tyrosyl-DNA phosphodiesterase 1 (TDP1): qHTS in cells in presence of CPT; also: nearly all actives have a fitted effect of over 55% in size", "conditions": "chicken DT40 Tdp1-/-;hTDP1 cells + 20 nM CPT, ATP luminescence, 48 h; series mostly up to 46.2 µM", "method_in_brief": "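Chicken DT40 Tdp1-/- cells stably complemented with human TDP1 were seeded at 400 cells/well in medium containing 20 nM camptothecin, exposed to pin-transferred compounds, and grown at 37 °C for at least 48 hr. Viability was read as ATP luminescence.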", "values": [
      {"smiles": "COCCOC(=O)c1c(N)n(Cc2ccc(OC)cc2)c2nc3ccccc3nc12", "Potency": "inconclusive: 29.1 µM [inhibitor, single point]"},
      {"smiles": "Cc1cccc(-n2c(/C=C/c3ccc([N+](=O)[O-])o3)nc3ccccc3c2=O)c1", "Potency": "active: 3.26 µM"},
      {"smiles": "Cc1ccc2c(c1)=NC(=O)/C(=C/c1c(O)[nH]c(=O)[nH]c1=O)C=2", "Potency": "inconclusive: 10.3 µM [inhibitor, partial curve]"},
      {"smiles": "CC(=O)C1=C(O)[C@@H]2[C@@H]3c4c[nH]c5cccc(c45)C[C@@H]3C(C)(C)N2C1=O", "Potency": "active: 6.68 µM"},
      {"smiles": "COc1c(C)cc(Br)cc1C(=O)Nc1ccc(-c2nc3ncccc3o2)cc1", "Potency": "active: 6.51 µM"},
      {"smiles": "Cc1oc(-c2ccccc2Cl)nc1CN1C(=O)CN=C(c2ccccc2)c2ccccc21", "Potency": "inconclusive: 29.1 µM [inhibitor, single point]"},
      {"smiles": "CCCN(CC#CCO)CCC", "Potency": "inactive"},
      {"smiles": "CC(C)N1C(=O)NC(=O)C2(Cc3cc([N+](=O)[O-])ccc3N(C)C2c2ccccc2)C1=O", "note": "(stereo unspecified)", "Potency": "inconclusive: 18.4 µM [inhibitor, single point]"},
      {"smiles": "Cc1cc(C=C2C(=O)N(C)C(=S)N(C)C2=O)c(C)n1C1CCCC1", "Potency": "inactive"},
      {"smiles": "CCC1(c2cccc(O)c2)CCCCN(C)C1", "note": "(stereo unspecified)", "Potency": "inconclusive: 20.6 µM [inhibitor, single point]"},
      {"smiles": "COC(=O)C1=C(c2ccc(Cl)c(C(F)(F)F)c2)C[C@@H]2CC[C@H]1N2C(=O)NCCOc1ccccc1", "Potency": "inconclusive: 29.1 µM [inhibitor, single point]"},
      {"smiles": "Nc1cccc(N=Cc2c(O)n(Cc3ccc(F)cc3)c(=O)[nH]c2=O)c1", "Potency": "inconclusive: 29.1 µM [inhibitor, single point]"},
      {"smiles": "CC[C@]1(C(=O)OC)[C@H]2C(=O)N(Cc3ccccc3)C(=O)[C@H]2[C@H]2CN=C(SCc3ccc(C(=O)OC)cc3)N21", "Potency": "active: 20.6 µM"},
      {"smiles": "COC(=O)C1=C(c2cccc(OCc3ccccc3)c2)C[C@@H]2CC[C@H]1N2C(=O)NCc1cc(C)oc1C(F)(F)F", "Potency": "active: 23.1 µM"},
      {"smiles": "CC1=CC(=O)C2=C(C)C[C@H](O)[C@@H]3[C@H](OC(=O)[C@H]3C)[C@@H]12", "Potency": "inactive"},
      {"smiles": "Cc1ccc(-n2c(C)cc(/C=C3/C(=O)NC(=O)N(Cc4ccco4)C3=O)c2C)cc1", "Potency": "inactive"},
      {"smiles": "CC1(C)N([O-])[N+](=O)C1(C)Br", "note": "(stereo unspecified)", "Potency": "inconclusive: 0.731 µM [inhibitor, full curve, poor fit]"},
      {"smiles": "O=c1[nH]c(=S)n(C2CC2)c(O)c1C=Nc1cccc(C(F)(F)F)c1", "Potency": "inconclusive: 29.1 µM [inhibitor, single point]"},
      {"smiles": "O=C1NC(=O)C(CCc2ccncc2)(c2ccccc2)C(=O)N1", "Potency": "inactive"},
      {"smiles": "CCSc1nnc([C@@H](N)Cc2ccccc2)o1", "Potency": "inactive"},
      {"smiles": "COCCNC(=O)N1[C@H]2CC[C@@H]1C(C(=O)OC)=C(c1cccc(C#N)c1)C2", "Potency": "inactive"},
      {"smiles": "CC(=O)c1cn(Cc2ccc(F)cc2)c2ccccc12", "Potency": "active: 20.6 µM"},
      {"smiles": "COc1ccc2c(c1)/C(=C/c1cnc[nH]1)C(=O)N2", "Potency": "active: 3.16 µM and active: 2 µM and active: 2.59 µM"},
      {"smiles": "Cc1cc(C)nc(N2Cc3ccccc3C2=N)n1", "Potency": "inconclusive: 18.4 µM [inhibitor, single point]"},
      {"smiles": "N#CC(C(=O)C12CC3CC(CC(C3)C1)C2)c1nc2ccccc2[nH]1", "note": "(stereo unspecified)", "Potency": "inconclusive: 29.1 µM [inhibitor, single point]"},
      {"smiles": "CCCCNC(=O)NC(C(N)=O)P(=O)(OCC)OCC", "note": "(stereo unspecified)", "Potency": "inactive"},
      {"smiles": "COc1ccc(/C=C/C(=O)c2c(O)n(CCC3=CCCCC3)c(=O)[nH]c2=O)cc1OC", "Potency": "inconclusive: 29.1 µM [inhibitor, single point]"},
      {"smiles": "Cc1nn(CC(C)C)c(Cl)c1C(=O)O", "Potency": "inactive"},
      {"smiles": "Cc1ccc(NC(=S)NC2CC3CCC(C2)N3Cc2ccco2)cc1C", "note": "(stereo unspecified)", "Potency": "inconclusive: 18.4 µM [inhibitor, single point]"},
      {"smiles": "O=c1cccc2n1CC1CC2CN2CCCCC12", "note": "(stereo unspecified)", "Potency": "inactive"},
      {"smiles": "COc1ccc(-n2nnnc2C(c2ccccc2OC(F)(F)F)N2CCC3(CC2)C(=O)NCN3c2ccccc2)cc1", "note": "(stereo unspecified)", "Potency": "active: 18.4 µM"},
      {"smiles": "O=C(C1CCN(S(=O)(=O)c2ccc(Br)s2)CC1)N1CCN(c2ccccc2)CC1", "Potency": "inconclusive: 29.1 µM [inhibitor, single point] and inconclusive: 18.4 µM [inhibitor, single point]"},
      {"smiles": "C=CCC1(CCCCC)C(=O)NC(=S)NC1=O", "Potency": "inactive"},
      {"smiles": "Cc1nc2cnc(N3CCNCC3)nc2n(C)c1=O", "Potency": "inactive"},
      {"smiles": "Cn1cc(C(=O)Cc2ccccc2)c2ccccc21", "Potency": "active: 16.4 µM"},
      {"smiles": "c1cnc(N2CC3(CCNCC3)C2)nc1", "Potency": "inactive"},
      {"smiles": "Cc1ccc2c(=O)n(-c3cccc(Cl)c3)c(=O)[nH]c2c1", "Potency": "inconclusive: 25.9 µM [inhibitor, single point]"},
      {"smiles": "CSc1cccc(NC(=O)C2CCN(C(=O)c3cnn(-c4ccccc4)c3-n3cccc3)CC2)c1", "Potency": "active: 16.4 µM"},
      {"smiles": "CCOC(=O)C1(CCc2ccccc2)CCN(Cc2ccc(NC(C)=O)cc2)CC1", "Potency": "inconclusive: 13 µM [inhibitor, partial curve]"},
      {"smiles": "C[C@]12C[C@H](O)[C@@H](O)CC1=CCC1C2CC[C@@]2(C)C1CC[C@@H]2O", "note": "(stereo partly specified)", "Potency": "inactive"},
      {"smiles": "C[C@H](CO)N1C[C@H](C)[C@H](CN(C)C(=O)N[C@H](C)c2ccccc2)OCc2ccccc2-c2c(n(C)c3ccccc23)C1=O", "Potency": "active: 23.1 µM"},
      {"smiles": "Oc1c(Cl)c(Cl)c(Cl)c(Cl)c1Cl", "Potency": "inconclusive: 29.1 µM [inhibitor, single point] and inconclusive: 20.6 µM [inhibitor, single point]"},
      {"smiles": "CC(=O)OC1CC[C@]2(C#N)[C@H]3CC[C@]4(C)[C@H](C5C=CC(=O)O5)CCC4(O)C3CCC2(O)C1", "note": "(stereo partly specified)", "Potency": "inconclusive: 25.9 µM [inhibitor, single point]"},
      {"smiles": "CCCCn1nnnc1C(CC)N1CCC2(CC1)C(=O)NCN2c1ccccc1", "note": "(stereo unspecified)", "Potency": "inconclusive: 29.1 µM [inhibitor, single point]"},
      {"smiles": "COc1ccc2nc(NC(=O)c3nc(S(=O)(=O)Cc4cccc(C)c4)ncc3Cl)sc2c1", "Potency": "active: 1.64 µM"},
      {"smiles": "Nc1c(C(=O)NCc2ccco2)c2nc3ccccc3nc2n1Cc1ccc(F)cc1", "Potency": "active: 14.6 µM"}
    ]}
  ]
}
